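Each compound was tested at five concentrations against cells in 96-well plates for 48 hours. GI50 is the concentration that inhibits growth by half. Definition used: TGI = concentration required for complete inhibition of growth.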
Test system: NCI-H322M lung
Assay: DTP human tumour cell line panel, 48 h

Structure (SMILES)	GI50 [µM]	TGI [µM]
O=C(Cn1c(/C=C/c2ccccc2)nc2ccccc2c1=O)Nc1ccc(Cl)cc1	> 100	> 100
Cn1cc(-c2cc(N)n3nc(-c4c[nH]c5ccccc45)cc3n2)c2cc(Cl)ccc21	4.54	20.4
CC1=C(C=O)C2=C(C)C3(CC3)[C@@](C)(O)C(=O)C2=C1	0.327	1.23
COc1ccc2[nH]cc(/C=N/Nc3ccc(Br)cn3)c2c1	13.4	> 100
